# Results from paper PMC7819943, “Rice protein-binding microarrays: a tool to detect cis-acting elements near promoter regions in rice”.
# The other results are listed elsewhere or left out.
# Target: T1, OsWOX13 (Oryza sativa, UniProt Q5QMM3 1-267)
# T1 sequence: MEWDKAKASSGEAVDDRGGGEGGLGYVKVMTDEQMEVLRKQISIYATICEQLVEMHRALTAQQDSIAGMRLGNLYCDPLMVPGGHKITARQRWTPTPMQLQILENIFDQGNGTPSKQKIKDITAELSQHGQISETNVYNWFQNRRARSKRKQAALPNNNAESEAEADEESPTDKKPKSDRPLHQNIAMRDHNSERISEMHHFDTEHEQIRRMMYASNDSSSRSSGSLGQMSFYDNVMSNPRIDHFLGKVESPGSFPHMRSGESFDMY
# Test: protein-binding microarray (RPBM); PBS, 2% BSA, 51.3 ng/ul salmon testes DNA, 50 uM zinc acetate, 200 nM TF, 25 C, 1 h; high values mean tight binding
# Details: protein: recombinant; tags: N-terminal polyhistidine and DsRed monomer fusion (pET32a); label: CyDye5-dUTP incorporated in the synthesized complementary strand; 3' TTTTT single-stranded linker to array surface; dsDNA, one strand shown
# Method in brief: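 Transcription factors, each fused N-terminally to a polyhistidine tag and DsRed, were expressed in E. coli BL21-CodonPlus and purified on Ni–NTA. A custom Agilent array was made double-stranded by primer extension with Cy5-dUTP and blocked with 2% BSA. It was incubated with 200 nM protein in PBS, 2% BSA, salmon testes DNA and 50 µM zinc acetate at 25 °C for 1 h, then washed. The binding signal is per-feature fluorescence intensity (arbitrary units) read on an Axon 4000B scanner.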
row,Sequence,binding signal
1,CAAGGGATAAACATATAGAGACAGACAAATTGGAAGGAACCGGAGTCACCTAGTGCAG,45600 fluorescence intensity (a.u.)
2,GCAGCCAATTAAATTTTGTTATTTCTACCCATTACTTGTTCGGAGTCACCTAGTGCAG,13000 fluorescence intensity (a.u.)
3,TGAAATGAAATCAATCTAACAATCCTAAAAGCCCTTCCTCCGGAGTCACCTAGTGCAG,11600 fluorescence intensity (a.u.)
4,CAAAATTAATAATAAACTATGAGCTTTATTTTAGTAATTACGGAGTCACCTAGTGCAG,11700 fluorescence intensity (a.u.)
5,TGCCTTGAATTTGATTGCAATCCTCAGTTTTCCTAAACTGCGGAGTCACCTAGTGCAG,26800 fluorescence intensity (a.u.)
6,CCTGTTGATTTCATATTCCTCAGATCTTGAATTTTGTTTGCGGAGTCACCTAGTGCAG,8470 fluorescence intensity (a.u.)
7,CATCGTGCAATTGATTGATCGTCTGATTTTATGTCGATTCCGGAGTCACCTAGTGCAG,42600 fluorescence intensity (a.u.)
8,CATAAATGAGATCCAGTGACGGCATGAGCATGTCCCAATTCGGAGTCACCTAGTGCAG,3900 fluorescence intensity (a.u.)
9,AAAATTAATTATAAATATTAAACGTAGACTATTAATAAAACGGAGTCACCTAGTGCAG,4460 fluorescence intensity (a.u.)
10,ATCTGAATCGTCCATTATCCATCATTCATTTATCATCTACCGGAGTCACCTAGTGCAG,3270 fluorescence intensity (a.u.)
11,CGCTGATGCGCGTGTGATGATTGCTGTGGTTTTATTCTCCCGGAGTCACCTAGTGCAG,10200 fluorescence intensity (a.u.)
12,TTAATTATCATTAAATTTGATCGTGCTTAAATTTGGAGGTCGGAGTCACCTAGTGCAG,24800 fluorescence intensity (a.u.)
13,TGCTAGATTAAATTTTAAAACTATATTGTTCCTTTCATATCGGAGTCACCTAGTGCAG,12400 fluorescence intensity (a.u.)
14,TGTAATCTTTGATTAGTACTAATCTGATGATCCGAGATTCCGGAGTCACCTAGTGCAG,25700 fluorescence intensity (a.u.)
15,GTGATGACGAGGATACCGAACTTGACGGTAGCCTACTCGCCGGAGTCACCTAGTGCAG,4530 fluorescence intensity (a.u.)
16,ACTGACAGTTTCTGTTCGTGCAACTGATGGAATTCAGAGGCGGAGTCACCTAGTGCAG,8430 fluorescence intensity (a.u.)
17,TTTGTGATGGTTGATTTGGTGTTAGACTTTTCCTCATTAGCGGAGTCACCTAGTGCAG,7240 fluorescence intensity (a.u.)
18,AGTAATTTGTGAATTAAACTTTTATATACGTGTTCTTAGCCGGAGTCACCTAGTGCAG,42200 fluorescence intensity (a.u.)
19,GAGGAGTAACGACATTAATTACCGTTGCTCTTACCGGATCCGGAGTCACCTAGTGCAG,4260 fluorescence intensity (a.u.)
20,GCAATTCTCTAAGTTAATTAATTAGGAAGTCACAGAATACCGGAGTCACCTAGTGCAG,19500 fluorescence intensity (a.u.)
21,GTAGATTTGAATAGTACCTAGGGTTTGCTGGTGAGTTGAGCGGAGTCACCTAGTGCAG,6360 fluorescence intensity (a.u.)

row,Sequence,binding signal
1,TGATAACTTCAATTTTAAATATGCAGTTTTATTTAACCTTCGGAGTCACCTAGTGCAG,5930 fluorescence intensity (a.u.)
2,AGTAATTTAACTATTGAGCAGTCAGTCTCCTCCAAAGCATCGGAGTCACCTAGTGCAG,26400 fluorescence intensity (a.u.)
3,CTTAACTGATACAACATTAAGTATGAAATGAAGAACGATACGGAGTCACCTAGTGCAG,15300 fluorescence intensity (a.u.)
4,TTATATCGTTTTAATTTCAATTAAACTTTCAATTTTAGTGCGGAGTCACCTAGTGCAG,8150 fluorescence intensity (a.u.)
5,ATATAATGGGCACTATGATTTGCTCTAAATATTGGTCATTCGGAGTCACCTAGTGCAG,28800 fluorescence intensity (a.u.)
6,TCAGCACACACGCTTTGCTGTGATTGGTTCTGACACGACACGGAGTCACCTAGTGCAG,4040 fluorescence intensity (a.u.)
7,AACAAATCATACGGTTTCAGATGACCATATATGTAACCATCGGAGTCACCTAGTGCAG,3500 fluorescence intensity (a.u.)
8,ATAACTGATTAGTGGTTGTTTAGTAGCTGTTGGGGTTTACCGGAGTCACCTAGTGCAG,38200 fluorescence intensity (a.u.)
9,TAACGTAATCACCCGACTGATTTATAAGGGTATGAAATGGCGGAGTCACCTAGTGCAG,23900 fluorescence intensity (a.u.)
10,TTCCTCTTCCGATCTCCAATCAACGATACCACACACAATCCGGAGTCACCTAGTGCAG,6150 fluorescence intensity (a.u.)
11,TATAAAATAGATTTAGGAAACCGATACCGTGTTGGTTAATCGGAGTCACCTAGTGCAG,5260 fluorescence intensity (a.u.)
12,TCTAAATCTTAATTTGAATATTCAATTTTACCCATGATAGCGGAGTCACCTAGTGCAG,16900 fluorescence intensity (a.u.)
13,TAGAGGGTTGTGATTGGTTAGTAAGAGAATGTTGGTGGTGCGGAGTCACCTAGTGCAG,14000 fluorescence intensity (a.u.)
14,AATTTGATATAGTAATTTCTATCTACTTATGTCACCCACTCGGAGTCACCTAGTGCAG,5870 fluorescence intensity (a.u.)
15,TTGTTAATTTCACAGGTTCATGCACTCAAGATTGCGGACACGGAGTCACCTAGTGCAG,6380 fluorescence intensity (a.u.)
16,CAAAATATTTTAGATTACTCGTCTCATCAACCACCGCAATCGGAGTCACCTAGTGCAG,3910 fluorescence intensity (a.u.)
17,CTGCTTAATTAGCTGAACCTTGGATTAACCATTATTTCGACGGAGTCACCTAGTGCAG,25200 fluorescence intensity (a.u.)
18,GTAGGCTGATTAGAGATAAATAATTAAGTGCAGAAGCAAGCGGAGTCACCTAGTGCAG,24500 fluorescence intensity (a.u.)
19,CAATAATTGAGTGATTTGGCCCAGTCCAGGAACTAGTAAGCGGAGTCACCTAGTGCAG,56100 fluorescence intensity (a.u.)
20,GGCGACAAATTGAGGGACCTAAAGTGAACTTATTCCAGCCCGGAGTCACCTAGTGCAG,8920 fluorescence intensity (a.u.)
21,TGAAATTGACTTGCGCTCAACAATATTTGCTTATCGGAAACGGAGTCACCTAGTGCAG,29100 fluorescence intensity (a.u.)
